Measurements published in PubChem BioAssay AID485344 (National Center for Advancing Translational Sciences (NCATS), 2010).
Screen size: about 340,000 compounds; about 6,900 (2%) were called active. No stated cut-off is given here; in the data, active means inhibition above about 30%; inactive means below that, where a call was filed. The entries are a selection whose mix differs from that of the whole data set. Where no call is shown, the source filed none.

Molecular target: D(2) dopamine receptor (Homo sapiens) (UniProt P14416)
Experiment: HTS Assay for Allosteric Antagonists of the Human D2 Dopamine Receptor: Primary Screen for Antagonists; further: 0% is about no effect
Settings: HEK293 TREx D2 cells, calcium flux, dopamine EC80; at 10 µM; stronger effect = higher value
Outline: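 Overnight-induced (tetracycline, 30 C) HEK293 T-REx cells carrying force-coupled D2 receive a no-wash calcium dye, then compound, then EC80 dopamine at 180 s; signals are read kinetically throughout.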

UniProt P14416, sequence (P14416 whole entry, looked up): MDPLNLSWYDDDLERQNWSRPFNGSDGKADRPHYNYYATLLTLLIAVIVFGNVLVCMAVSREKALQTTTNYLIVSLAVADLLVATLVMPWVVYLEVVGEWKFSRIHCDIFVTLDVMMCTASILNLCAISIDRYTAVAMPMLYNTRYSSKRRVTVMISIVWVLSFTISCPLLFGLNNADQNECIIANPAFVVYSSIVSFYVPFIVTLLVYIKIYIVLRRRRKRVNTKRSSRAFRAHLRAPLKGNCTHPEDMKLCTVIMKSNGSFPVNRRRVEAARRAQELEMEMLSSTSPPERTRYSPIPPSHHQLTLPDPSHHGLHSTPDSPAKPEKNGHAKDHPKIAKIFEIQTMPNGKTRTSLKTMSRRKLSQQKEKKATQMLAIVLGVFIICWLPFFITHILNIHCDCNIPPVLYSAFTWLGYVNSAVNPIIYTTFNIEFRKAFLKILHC

In order of falling inhibition:
1. CCOc1ccc2nc(N3CCN(C(=O)C(C)C)CC3)sc2c1  22.3%
2. CCC1CN(C(=O)C2CCN(S(=O)(=O)c3c(C)noc3/C=C/c3ccc(C)cc3)CC2)c2cc(C)ccc2O1 (configuration not stated)  20.7%
3. Cc1cccc(C(=O)NCC(c2ccc3c(c2)OCO3)N2CCN(c3ccccc3F)CC2)c1 (configuration not stated)  20.6%
4. Cn1c(=O)c2c(-c3ccccc3)n3c(c2n(C)c1=O)C(c1cccc([N+](=O)[O-])c1)Nc1ccccc1-3 (configuration not stated)  20.1%
5. COc1ccc(NC(=O)C(=O)c2cc(C)n(-c3ccc(C)cc3)c2C)cc1Cl  19.2%
6. Cc1ccccc1NC(=O)C1CCN(S(=O)(=O)c2cccc3nonc23)CC1  17.3%
7. CCOC(=O)CSc1nc2ccc(NC(=O)c3ccc(F)cc3)cc2s1  17.2%
8. Cc1ccc(-n2ccnc(NCCc3ccccc3)c2=O)cc1C  15.9%
9. Cc1nc(-n2nc(C)c(CCC(C)C)c2C)sc1C(=O)Nc1cccc(Cl)c1C  15.5%
10. O=C(Nc1cc(-c2ccc(F)c(F)c2)no1)c1ccccc1F  12.6%
11. COCCCN1C(=O)c2[nH]nc(-c3ccccc3O)c2C1c1ccc(OC)cc1 (configuration not stated)  12.2%
12. CCn1c(=O)c2cc(C(=O)NCCc3ccc(OC)c(OC)c3)sc2c2ccccc21  11.3%
13. COc1ccc(-c2cc(C(=O)Nc3c(C(=O)c4ccc(C)c(F)c4)oc4ccccc34)no2)cc1  9.72%
14. O=C(Nc1ccc(C(F)(F)F)cc1)C1(c2cccs2)CCOCC1  9.36%
15. O=C(Nc1nnc2n1CCS2)c1cc(C(F)(F)F)cc(C(F)(F)F)c1  9.2%
16. CC1CCCN(c2ncnc3c2nnn3C)C1 (configuration not stated)  8.57%
17. COc1ccc(-c2cc(C(F)(F)F)n3nc(C(=O)Nc4cccc(Cl)c4Cl)cc3n2)cc1OC  8.08%
18. CCN(CC)CCCNC(=O)C(C)n1nc(C)n2c(cc3occc32)c1=O (configuration not stated)  8%
19. COc1ccc(-c2cc(C(F)(F)F)n3nc(C(=O)Nc4ccc(Cl)cc4C(F)(F)F)cc3n2)cc1OC  7.59%
20. CCOc1ccc(CNC(=O)c2ccc(Sc3ccc(C)cc3)c(N)c2)cc1OC  6.69%
21. Cc1ccc(-n2nc(C)c3c(C)cc(=O)n(CC(=O)Nc4ccc(Br)cc4F)c32)cc1  5.82%
22. COC(=O)Cn1c(SCCOc2ccccc2Cl)nc2ccccc21  5.79%
23. CC(C)c1ccc(NC(=O)c2cc(S(=O)(=O)NC3CCCCC3)ccc2F)cc1  5.45%
24. COc1ccc(CCNC(=O)Cn2c(=O)nc(-c3ccccc3F)c3cc(Cl)ccc32)cc1OC  5.4%
25. Cc1ccc(NC(=O)c2c(C)oc3ncnc(N4CCCCC4)c23)c(C)c1  4.74%
26. CCOc1ccc(NC(=O)c2cc(S(=O)(=O)N3CCC(C)CC3)cn2C)cc1  4.45%
27. Cc1cccc(N2CCN(C(=O)C3CCCN(C(=O)c4cc5sccc5n4C)C3)CC2)c1C (configuration not stated)  4.07%
28. CCOc1ccccc1Nc1nc(-c2cccc(Cl)c2)c2c(n1)-c1ccccc1OC2  3.61%
29. CCOC(=O)c1cccc(NC(=O)CCc2c(C)nc3cc(-c4ccc(Cl)cc4)nn3c2C)c1  3.26%
30. CCc1ccc(NC(=O)c2sc3nc(C)cc(C)c3c2NC(=O)c2ccccc2)cc1  2.57%
31. Cc1ccc2[nH]c(CSc3nnc(C)s3)cc(=O)c2c1  2.52%
32. COc1ccc2oc(=O)cc(CN3CCN(C(=O)c4ccccc4Br)CC3)c2c1  2.29%
33. O=C(CCCn1c(=O)c2cccn2c2ccc(F)cc21)NCCc1ccccc1  2.21%
34. CC1=C(C(=O)Nc2ccc(C)cc2C)C(c2cc(Br)ccc2F)n2ncc(C(=O)Nc3ccc(C)cc3)c2N1 (configuration not stated)  1.97%
35. Cc1oc(-c2ccccc2)nc1Cn1c(=O)cc(-c2ccccc2)c2c(C)nn(C)c21  1.7%
36. Cc1ccccc1-n1c2nc(=O)[nH]c(=O)c-2cc2c(Cl)cccc21  1.38%
37. Cn1cnnc1SCC(=O)Nc1cc(C(=O)O)cc(C(=O)O)c1  0.915%
38. COc1ccc(S(=O)(=O)c2c(Nc3ccc(C)cc3)sc(C(=O)c3ccc(C)cc3)c2N)cc1  0.382%
39. Cc1cc(C)cc(NC(=O)c2cc(S(=O)(=O)N3CCCCC3)c[nH]2)c1  -0.42%
40. CCOC(=O)c1cc(-c2ccc(C)cc2)n(CC(=O)Nc2cc(C)ccc2C)c1C  -1.04%
41. COc1ccc(OCC(=O)Nc2ccc3c(c2)N(C)C(=O)c2ccccc2S3)cc1  -1.31%
42. Cc1ccc(-c2nn3c(C)nnc3c3ccccc23)cc1S(=O)(=O)NC(C)(C)CO  -2.01%
43. Cc1ccc(NC(=O)c2cnc(SCC(=O)N3CCCc4ccccc43)n(C)c2=O)cc1C  -2.23%
44. Cc1cccc(C)c1NC(=O)Cn1c(=O)n(CCC(=O)NCc2ccc3c(c2)OCO3)c(=O)c2sccc21  -2.31%
45. COC(=O)CSc1nnc(-c2cccc(O)c2)o1  -2.36%
46. COc1cc(-c2noc(CSc3nc(-c4ccccc4)cc(=O)[nH]3)n2)cc(OC)c1OC  -2.74%
47. CCOc1ccc(N(C)S(=O)(=O)c2cc(-c3cnc(C)o3)ccc2OC)cc1  -2.94%
48. Cc1ccc(Cl)cc1NC(=O)Nc1c(C)n(C)n(-c2ccccc2)c1=O  -3.42%
49. CCN(C(=O)Cn1cnc2c1c(=O)n(C)c(=O)n2C)c1ccccc1C  -3.47%
50. CC1CCN(c2nn3c(=O)c(C(=O)NCCc4ccc(Cl)cc4)cnc3s2)CC1  -3.76%
51. CCOc1ccc(CCNC(=O)Cn2ccc3cc(S(=O)(=O)N4CCCCCC4)ccc32)cc1  -3.79%
52. CCc1ccc(Oc2nc3c(C)cccn3c(=O)c2/C=C(\C#N)c2nc3ccccc3[nH]2)cc1  -3.95%
53. Cc1c(Cl)cccc1NC(=O)CCn1cnnn1  -4.49%
54. CC1=C(C(=O)Nc2ccc(F)cc2)C(c2ccc(N(C)C)cc2)NC(=O)N1 (configuration not stated)  -4.5%
55. COc1ccc(C(C)=O)cc1CSc1nc(NCc2ccc(Cl)cc2)c2ccccc2n1  -4.71%
56. O=C(C1CCC(CNS(=O)(=O)c2cccs2)CC1)N1CCN(c2ccc(Cl)cc2)CC1 (configuration not stated)  -4.74%
57. COc1cccc(CNC(=O)Nc2ccc3c(c2)N(C)C(=O)c2ccccc2S3)c1  -5.54%
58. COc1ccc(NC(=O)c2sc3nc4c(cc3c2N)CN(C(C)C)CC4)c(OC)c1  -5.78%
59. CN(C)S(=O)(=O)c1ccc2c(c1)N(CC(=O)N1CCC(C(N)=O)CC1)CCS2  -6.17%
60. Cc1ccc(CSCC(=O)NCc2ccc(F)cc2)cc1  -6.61%
61. CCCOC(=O)c1cccc(Nc2nc(C(=O)OCC)nc3ccccc23)c1  -6.97%
62. COc1ccc(N2CCN(c3ncnc4onc(C)c34)CC2)cc1  -9%
63. COc1ccc(-c2noc(-c3ccc(NCc4ccco4)c([N+](=O)[O-])c3)n2)cc1  -9.18%
64. CC(C)CN(CC(C)C)c1nnc(NC(=O)Nc2cccc(C(F)(F)F)c2)s1  -9.99%
65. CCC1CN(C(=O)N2CCC(C(=O)NCc3ccccc3F)CC2)c2ccccc2O1 (configuration not stated)  -10.4%
66. CCOC(=O)c1c(C)[nH]c(C)c1S(=O)(=O)N1CCCC(C(=O)Nc2ccc(OC)c(OC)c2)C1 (configuration not stated)  -10.7%
67. CCOC(=O)c1c(NC(=O)c2ccccc2C)sc2c1CCCC2  -11.1%
68. COc1ccc(C(=O)N2CCN(CCc3ccccn3)CC2)cc1  -13.1%
69. CC(Oc1ccccc1F)C(=O)NCC1(N2CCOCC2)CCCCC1 (configuration not stated)  -13.1%
70. COc1ccc(NC(=O)CSc2nnc(-c3nonc3NC(C)=O)n2C)cc1Cl  -13.9%
71. COc1ccc(-c2ccc(CNc3ccc4[nH]c(=O)[nH]c4c3)o2)cc1Cl  -14.4%
72. Cc1nn(CC(=O)NC2CCCCC2)c(=O)c2cc3cc(F)ccc3n12  -15.2%
73. Cc1ccc2nc(Cl)c3cc(C(=O)N4CCCC(C)C4)sc3c2c1 (configuration not stated)  -15.6%
74. O=C(OCc1ccco1)c1ccc2c(c1)N(Cc1ccc([N+](=O)[O-])cc1)C(=O)c1ccccc1S2  -16.6%
75. COC(=O)c1ccccc1NC(=O)CN(c1ccc(Cl)cc1)S(=O)(=O)c1ccc(OC)cc1  -16.9%
76. Cc1ccc(C)c(NC(=O)Cn2cc(S(=O)(=O)c3ccc(F)cc3)c(=O)c3cc(F)ccc32)c1  -17.8%
77. COc1ccc(/C=C/C(=O)Nc2cccc(F)c2)cc1  -19.1%
78. O=C(CN1C(=O)COc2ccc(S(=O)(=O)N3CCCC3)cc21)NCCc1ccc(Cl)cc1  -20.1%
79. Cc1ccc(NC(=O)C2CCCN(c3nc4ccccc4s3)C2)c(C)c1 (configuration not stated)  -20.3%
80. O=c1cc2nc(-c3ccccc3F)nc(SCc3ccc(Br)cc3)n2[nH]1  -21.7%
81. Cn1nnnc1SCCCNCc1ccc(-c2cccc(Cl)c2)o1  -24.5%
82. CCOc1ccccc1NC(=O)C1CCN(S(=O)(=O)c2cccc3nonc23)CC1  -25%

For `Cn1c(CCN2CCCCC2)nc2cc(NS(=O)(=O)c3ccc(F)cc3)ccc21`, the inhibition was active: 32%.
`COc1cc(NC(=O)c2cc(-c3ccco3)on2)cc(OC)c1OC` was tested, and the inhibition was active: 33.1%.
`CCOc1ccc(N(CC(=O)Nc2cc(C)cc(C)c2)S(C)(=O)=O)cc1` was tested, and the inhibition was active: 40.8%.
With `O=C(Cn1cnc2c(nnn2Cc2ccc(F)cc2)c1=O)Nc1cccc(F)c1` the inhibition was active: 37%.
In the case of `CC1CCN(CCCNC(=O)c2n[nH]c(=O)c3ccccc23)CC1`, the inhibition is reported as active: 41.1%.
With `C=CCn1c(-c2ccc(OC)cc2)csc1=Nc1c(C)n(C)n(-c2ccccc2)c1=O` the inhibition was active: 53.6%.
In the case of `Cc1cccc(C)c1OCC(=O)N/N=C/c1cc2c(cc1[N+](=O)[O-])OCO2`, the inhibition is reported as active: 30%.
For `COc1ccc(OC)c(-c2cc(C(=O)NCc3ccc(Cl)cc3)no2)c1`, the inhibition was active: 62%.
With `CCCSc1nnc2n(C)c(=O)c3c4c(sc3n12)CCC4` the inhibition was active: 40.1%.
For `Brc1ccccc1OCCCN1CCCCCC1`, the inhibition was active: 46.2%.
With `CCOC(=O)C1CCN(C(=O)CN(c2ccc3c(c2)OCO3)S(C)(=O)=O)CC1` the inhibition was active: 45.3%.
With `Cc1cc(=O)oc2cc(OCC(O)CN3CCN(c4ccccc4)CC3)ccc12` (configuration not stated) the inhibition was active: 71.9%.
With `O=C(CCc1ccc(O)c(O)c1)N/N=C/c1ccc2c(c1)OCO2` the inhibition was active: 42.3%.
`O=C(CN1CCCCCC1)Nc1ccc(Br)cn1` was tested, and the inhibition was active: 41.3%.
For `Cc1c(C(=O)N2CCCC2)sc(NC(=O)c2ccc(Cl)cc2)c1C#N`, the inhibition was active: 91.2%.
